{"source": "the supplement of paper PMC4604168 (melanoma cell lines)", "note": "The list shows a part of the results. Single values are uncertain, as repeats are few or missing.", "data": [{"tested_on": "WM1745", "test": "cell count relative to DMSO control; melanoma cells; higher = more viable cells", "details": "library dose: standard library concentration; 72 h; first compound 2 µM", "units": {"cell count": "%"}, "values": [{"compound": "C[C@@H](N)c1ccc(C(=O)Nc2ccnc3[nH]ccc23)cc1", "note": "+ CO[C@@H]1[C@H](N(C)C(=O)c2ccccc2)C[C@H]2O[C@]1(C)n1c3ccccc3c3c4c(c5c6ccccc6n2c5c31)C(=O)NC4 [Midostaurin] (partner dose 0.4 µM);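 note: cells treated in 1,536-well plates, then fixed and DAPI-stained, with nuclei counted from automated high-throughput microscope images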", "cell count": 19.7}, {"compound": "Cn1sc(=O)n(Cc2ccccc2)c1=O", "note": "+ Nc1cccc2c1CN(C1CCC(=O)NC1=O)C2=O [lenalidomide] (partner dose 5 µM)", "cell count": 84.6}, {"compound": "Cn1sc(=O)n(Cc2ccccc2)c1=O", "note": "+ COc1cc2c(Oc3ccc4[nH]c(C)cc4c3F)ncnc2cc1OCCCN1CCCC1 [cediranib] (partner dose 2 µM)", "cell count": 88.2}, {"compound": "C[C@@H](N)c1ccc(C(=O)Nc2ccnc3[nH]ccc23)cc1", "note": "+ Cn1sc(=O)n(Cc2ccccc2)c1=O [TDZD-8] (partner dose 2 µM)", "cell count": 40.9}, {"compound": "C[C@@H](N)c1ccc(C(=O)Nc2ccnc3[nH]ccc23)cc1", "note": "+ CC(C)C[C@H](NC(=O)[C@H](Cc1ccccc1)NC(=O)c1cnccn1)B(O)O [Bortezomib] (partner dose 0.005 µM)", "cell count": 14.4}, {"compound": "CCCCCCCCCCCCCCCCCCOP(=O)([O-])OC1CC[N+](C)(C)CC1", "note": "[Perifosine] + C#Cc1cccc(Nc2ncnc3cc(OCCOC)c(OCCOC)cc23)c1 [erlotinib] (partner dose 4 µM)", "cell count": 71.3}, {"compound": "Cn1sc(=O)n(Cc2ccccc2)c1=O", "note": "+ CNC(=O)c1cc(Oc2ccc(NC(=O)Nc3ccc(Cl)c(C(F)(F)F)c3)cc2)ccn1 [sorafenib] (partner dose 2 µM)", "cell count": 88.1}, {"compound": "CCCCCCCCCCCCCCCCCCOP(=O)([O-])OC1CC[N+](C)(C)CC1", "note": "[Perifosine] + C[C@]1(c2nc3c(C(N)=O)cccc3[nH]2)CCCN1 [Veliparib] (partner dose 7 µM)", "cell count": 85.3}, {"compound": "Cn1sc(=O)n(Cc2ccccc2)c1=O", "note": "+ Cc1cc(Nc2cc(N3CCN(C)CC3)nc(/C=C/c3ccccc3)n2)n[nH]1 [ENMD2076] (partner dose 0.2 µM)", "cell count": 86.5}, {"compound": "CCCCCCCCCCCCCCCCCCOP(=O)([O-])OC1CC[N+](C)(C)CC1", "note": "[Perifosine] + COc1ccc(C2=N[C@@H](c3ccc(Cl)cc3)[C@@H](c3ccc(Cl)cc3)N2C(=O)N2CCNC(=O)C2)c(OC(C)C)c1 [Nutlin-3] (partner dose 0.5 µM)", "cell count": 81.3}, {"compound": "Cn1sc(=O)n(Cc2ccccc2)c1=O", "note": "+ Cn1c(=O)n(-c2ccc(C(C)(C)C#N)cc2)c2c3cc(-c4cnc5ccccc5c4)ccc3ncc21 [NVP-BEZ235] (partner dose 0.02 µM)", "cell count": 92.8}, {"compound": "C[C@@H](N)c1ccc(C(=O)Nc2ccnc3[nH]ccc23)cc1", "note": "+ Nc1nc(F)nc2c1ncn2[C@@H]1O[C@H](CO)[C@@H](O)[C@@H]1O [fludarabine] (partner dose 1 µM)", "cell count": 70}, {"compound": "C[C@@H](N)c1ccc(C(=O)Nc2ccnc3[nH]ccc23)cc1", "note": "+ O=C(Nc1cccc(Cl)c1)Nc1ncc(CCNc2ncnc3ccsc23)s1 [SNS314] (partner dose 0.004 µM)", "cell count": 49.8}, {"compound": "Cn1sc(=O)n(Cc2ccccc2)c1=O", "note": "+ O=C(O)c1ccc2c(c1)nc(Nc1cccc(Cl)c1)c1ccncc12 [CX4945] (partner dose 2 µM)", "cell count": 75.3}, {"compound": "Cn1sc(=O)n(Cc2ccccc2)c1=O", "note": "+ COc1ccc(Cl)c(Nc2nc3ccccc3nc2NS(=O)(=O)c2cccc(NC(=O)C(C)(C)N)c2)c1 [XL147] (partner dose 4 µM)", "cell count": 105}, {"compound": "CCCCCCCCCCCCCCCCCCOP(=O)([O-])OC1CC[N+](C)(C)CC1", "note": "[Perifosine] + Cn1nnc2c(C(N)=O)ncn2c1=O [temozolomide] (partner dose 10 µM)", "cell count": 106}, {"compound": "CCCCCCCCCCCCCCCCCCOP(=O)([O-])OC1CC[N+](C)(C)CC1", "note": "[Perifosine] + Clc1ccc(Nc2nnc(Cc3ccncc3)c3ccccc23)cc1 [vatalanib] (partner dose 10 µM)", "cell count": 64.1}, {"compound": "C[C@@H](N)c1ccc(C(=O)Nc2ccnc3[nH]ccc23)cc1", "note": "+ COc1cc(Nc2ncc(F)c(Nc3ccc4c(n3)NC(=O)C(C)(C)O4)n2)cc(OC)c1OC [Tamatinib] (partner dose 2 µM)", "cell count": 19.3}, {"compound": "C[C@@H](N)c1ccc(C(=O)Nc2ccnc3[nH]ccc23)cc1", "note": "+ COc1cc2c(Oc3ccc4[nH]c(C)cc4c3F)ncnc2cc1OCCCN1CCCC1 [cediranib] (partner dose 2 µM)", "cell count": 51.8}]}]}
